{"source": "paper PMC9316867", "binders": {"B1": {"name": "VC-tagged Kip2 (protein, UniProt P28743 1-706)", "chain": "MIQKMSPSLRRPSTRSSSGSSNIPQSPSVRSTSSFSNLTRNSIRSTSNSGSQSISASSTRSNSPLRSVSAKSDPFLHPGRIRIRRSDSINNNSRKNDTYTGSITVTIRPKPRSVGTSRDHVGLKSPRYSQPRSNSHHGSNTFVRDPWFITNDKTIVHEEIGEFKFDHVFASHCTNLEVYERTSKPMIDKLLMGFNATIFAYGMTGSGKTFTMSGNEQELGLIPLSVSYLFTNIMEQSMNGDKKFDVIISYLEIYNERIYDLLESGLEESGSRISTPSRLYMSKSNSNGLGVELKIRDDSQYGVKVIGLTERRCESSEELLRWIAVGDKSRKIGETDYNARSSRSHAIVLIRLTSTNVKNGTSRSSTLSLCDLAGSERATGQQERRKEGSFINKSLLALGTVISKLSADKMNSVGSNIPSPSASGSSSSSGNATNNGTSPSNHIPYRDSKLTRLLQPALSGDSIVTTICTVDTRNDAAAETMNTLRFASRAKNVALHVSKKSIISNGNNDGDKDRTIELLRRQLEEQRRMISELKNRSNIGEPLTKSSNESTYKDIKATGNDGDPNLALMRAENRVLKYKLENCEKLLDKDVVDLQDSEIMEIVEMLPFEVGTLLETKFQGLESQIRQYRKYTQKLEDKIMALEKSGHTAMSLTGCDGTEVIELQKMLERKDKMIEALQSAKRLRDRALKPLINTQQSPHPVVDNDK"}, "B2": {"name": "VN-tagged Bfa1 (protein, UniProt P47113 1-574)", "chain": "MSIRPLTLNGLDEPETSFEELNTTLPRFQSHETLTLEENVPPLSTSTYIPPPSSVGTSDTGTVFSNSTSAFWSNKQADDDQDMEVDQDDEFLNDFQEFQNKKDDFDDAIKTNFHLRNGCRTGPFKNDIFAEEFDRKLSLEDKPRLKQPRSMMELKPKRKLSNSVTSRNLRSGNSVRFKKSMPNLALVNPAIREEEEDEEREREDQREFNYKIDNDTQDTILAKFSSDDEGDFLTGFEELEGEAIDETISSNDKESADHPRFLKKSSSSLPLKISPAQYDIVKHDELLTPGLHRRQRDWNTQQELDSFKEKRSVRHCSNQNVQLNGPAKIKTIKQQIDHNTPMKKGSMIYNPKTMKWEGNENVLSKFSDVDTANRKALLIKNKLQRDADSKKQKYSDLQHARATSRNQKVIGNMILDEQNLRWVSVSEEEADPFAGIPEINLPPVGKSMKKRSSSPFLRSKSQVNTPFVSNDNDGVYQSTAAQARLRKYHSMRTLNGTTETPEISSTFHLSSRALEKFYHEENRWCKKLASWFIPRDETIISVDEETIMDESTVNSKRKSYMYEIRNMVINSTKD"}, "B3": {"name": "Myc-tagged Kar9 (protein, UniProt P32526 1-644)", "chain": "MDNDGPRSMTIGDDFQENFCERLERIHNTLHSINDCNSLNESTTSISETLLVQFYDDLENVASVIPDLVNKKRLGKDDILLFMDWLLLKKYMLYQFISDVHNIEEGFAHLLDLLEDEFSKDDQDSDKYNRFSPMFDVIEESTQIKTQLEPWLTNLKELLDTSLEFNEISKDHMDTLHKIINSNISYCLEIQEERFASPIRHTPSFTLEQLVKLLGTHTETTEPKVPKFSPAEDILSRKFLNLKKNIPPIEKSLTDILPQRIVQFGHRNITNITTLQTILQKKYELIMKDYRFMNSEFRELKVELIDKRWNILFINLNHELLYILDEIERLQSKLLTTKYTKDITIRLERQLERKSKTVSKTFNIIYRALEFSLLDAGVASKTNELAQRWLNIKPTADKILIKSSASNKIATSKKKIPKPKSLGFGRPNSVIGTITQDFQERVAINEGDSNKTPENSTTVALKGKKLGKALLQKMNIKPATSPNSSNAINPFFDPESPNKGKLILSSVPPLPYDETDETTLRVSRGENEKSPDSFITSRHENKVQITETPLMAKNKSVLDIEKDKWNHYRSLPSRIPIYKDKVVKVTVENTPIAKVFQTPPTKITTPNSQVWVPSTRRRTRLRPPTPLSQLLSPREGRLDKTPTY"}, "B4": {"name": "Myc-tagged Kip2 (protein, UniProt P28743 1-706)", "chain": "B1 chain"}}, "key": {"[1]": {"biological_target": "T1, VN-tagged Bik1 (S. cerevisiae) (UniProt P11709)", "T1 sequence": "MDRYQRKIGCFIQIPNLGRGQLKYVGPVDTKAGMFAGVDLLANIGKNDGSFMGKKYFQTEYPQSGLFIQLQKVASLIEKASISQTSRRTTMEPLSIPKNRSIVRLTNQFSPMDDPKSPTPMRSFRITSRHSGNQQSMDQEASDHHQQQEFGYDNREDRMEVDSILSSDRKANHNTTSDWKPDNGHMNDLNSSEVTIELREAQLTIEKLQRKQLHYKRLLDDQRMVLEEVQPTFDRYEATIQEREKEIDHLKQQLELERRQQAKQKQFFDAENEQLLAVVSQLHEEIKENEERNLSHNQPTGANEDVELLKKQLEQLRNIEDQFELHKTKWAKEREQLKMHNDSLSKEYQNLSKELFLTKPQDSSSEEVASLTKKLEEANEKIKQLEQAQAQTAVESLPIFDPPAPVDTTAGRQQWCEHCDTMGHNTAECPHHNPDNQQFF", "test": "split reporter; BiFC in living wild-type (W303a bar1) yeast cells co-expressing a VN-tagged and a VC-tagged protein from the chromosomal loci; Zeiss LSM880 confocal microscope, 100x oil objective"}, "[2]": {"biological_target": "T2, VC-tagged Bim1 (S. cerevisiae) (UniProt P40013)", "T2 sequence": "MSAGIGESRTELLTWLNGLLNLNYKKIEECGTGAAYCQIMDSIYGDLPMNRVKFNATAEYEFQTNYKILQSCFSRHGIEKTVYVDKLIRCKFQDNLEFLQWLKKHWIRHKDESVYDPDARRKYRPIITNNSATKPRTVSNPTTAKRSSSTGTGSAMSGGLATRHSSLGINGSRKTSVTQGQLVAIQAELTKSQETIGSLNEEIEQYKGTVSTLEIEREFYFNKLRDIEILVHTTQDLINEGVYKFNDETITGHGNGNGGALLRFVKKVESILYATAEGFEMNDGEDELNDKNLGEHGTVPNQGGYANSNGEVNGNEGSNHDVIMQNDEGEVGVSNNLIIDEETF", "test": "split reporter; BiFC in living Δbub2 yeast cells (YSK3361) co-expressing VN-tagged Bfa1 and VC-tagged Bim1; Zeiss LSM880 confocal microscope, 100x oil objective"}, "[3]": {"biological_target": "T2, VC-tagged Bim1 (S. cerevisiae)", "test": "split reporter; BiFC in living wild-type (W303a bar1) yeast cells co-expressing a VN-tagged and a VC-tagged protein from the chromosomal loci; Zeiss LSM880 confocal microscope, 100x oil objective"}, "[4]": {"biological_target": "T3, HA-tagged Bim1 (S. cerevisiae) (UniProt P40013)", "T3 sequence": "T2 sequence", "test": "co-IP; HA-tagged Bim1 precipitated from total yeast lysates (5 mg) with anti-HA antibody and protein A agarose, 4 °C; lysis buffer 50 mM Tris-HCl pH 7.5, 150 mM NaCl, 1% Nonidet P-40; Myc-tagged Kar9 or Kip2 detected by anti-MYC blot; Δbfa1 cells overexpressing Bfa1 (GAL promoter) or with the vector control"}}, "note": "These are yes or no findings as the source states them, for the method shown. In cells and extracts the contact can be indirect. Some entries that bind do so weakly or less than the wild type. Where a sequence is shown, tags or fusion partners need not be part of it.", "data": [{"binder": "B1", "values": [{"measurement": "binding", "setting": "[1]", "value": "binds"}]}, {"binder": "B2", "values": [{"measurement": "binding", "setting": "[2]", "value": "no binding (condition: in Δbub2 cells)"}, {"measurement": "binding", "setting": "[3]", "value": "binds"}]}, {"binder": "B3", "values": [{"measurement": "binding", "setting": "[4]", "value": "binds"}]}, {"binder": "B4", "values": [{"measurement": "binding", "setting": "[4]", "value": "binds"}]}]}
